Assay results reported in the antibiotic and cytotoxicity screens of Wong et al. (2023).
The list shows a part of the results.

Legend:
[1] = system: HSkMC (human skeletal muscle cells); assay: cytotoxicity call (relative viability < 0.9); settings: 10 µM
[2] = system: HepG2; assay: cytotoxicity call (relative viability < 0.9); settings: 10 µM
[3] = system: S. aureus RN4220; assay: growth inhibition call (relative growth <= 0.2); settings: 50 µM

| SMILES | cytotoxicity call [1] | cytotoxicity call [2] | growth inhibition call [3] |
| --- | --- | --- | --- |
| Cc1ccc(S(=O)(=O)Nc2ccc3c(c2)C(=O)N([C@@H](C)CO)C[C@@H](C)[C@@H](CN(C)C(=O)Nc2ccc(C(F)(F)F)cc2)OCCCC[C@H](C)O3)cc1 | inactive | inactive | inactive |
| O=NN(CCCl)C(=O)NCCCl | inactive | inactive | inactive |
| COc1ccc(NC(=O)Nc2ccc3c(c2)C(=O)N([C@H](C)CO)C[C@H](C)[C@@H](CN(C)Cc2ccc4c(c2)OCO4)OCCCC[C@H](C)O3)cc1 | inactive | inactive | inactive |
| C[C@@H]1CN([C@@H](C)CO)C(=O)c2cc(NS(=O)(=O)c3ccc(Cl)cc3)ccc2O[C@@H](C)CCCCO[C@@H]1CN(C)Cc1ccncc1 | inactive | inactive | inactive |
| Cc1nc2c(C)cc(N)cn2n1 | inactive | inactive | inactive |
| COc1ccc(NC(=O)Nc2ccc3c(c2)C(=O)N([C@@H](C)CO)C[C@H](C)[C@H](CN(C)C(=O)NC2CCCCC2)OCCCC[C@H](C)O3)cc1 | inactive | inactive | inactive |
| C[C@@H]1CN([C@@H](C)CO)C(=O)c2cc(C#Cc3ccccc3F)cnc2O[C@@H]1CN(C)C(=O)C1CCOCC1 | inactive | inactive | inactive |
| CC(C)NC(=O)N(C)C[C@@H]1Oc2c(NS(=O)(=O)c3ccc(Cl)cc3)cccc2C(=O)N([C@@H](C)CO)C[C@H]1C | inactive | inactive | inactive |
| COc1ccc2c3c([nH]c2c1)[C@H](CO)N(CC1CCCCC1)C[C@]13CCN(CC1)C(=O)Nc1cccc(c1)F | inactive | inactive | inactive |
| CN(C)c1cc(NC(=O)CNC(C)(C)C)c(O)c2c1C[C@H]1C[C@H]3[C@H](N(C)C)C(=O)[C@@H](C(N)=O)C(=O)[C@@]3(O)C(=O)[C@H]1C2=O | inactive | inactive | inactive |
| COc1ccc(S(=O)(=O)N(C)C[C@@H]2Oc3ncc(C#Cc4ccc(F)cc4)cc3C(=O)N([C@H](C)CO)C[C@@H]2C)cc1 | inactive | inactive | inactive |
| CCS(=O)(=O)Nc1ccc2c(c1)C(=O)N(C)[C@H]1CC[C@H](CC(=O)NCCOC)O[C@@H]1CO2 | inactive | inactive | inactive |
| CC(C)[Si]1(C(C)C)OCc2cc(CCCc3cc4c(c(CCc5ccccc5)n3)[Si](C(C)C)(C(C)C)OC4)nc(CCc3ccccc3)c21 | inactive | inactive | inactive |
| CC(C)NC(=O)Nc1cccc2c1O[C@H](CN(C)Cc1ccc(C(=O)O)cc1)[C@H](C)CN([C@H](C)CO)C2=O | inactive | inactive | inactive |
| COc1ccc(S(=O)(=O)N(C)C[C@H]2OCCCC[C@@H](C)Oc3ccc(NC(=O)Nc4ccc(C(F)(F)F)cc4)cc3C(=O)N([C@@H](C)CO)C[C@H]2C)cc1 | active | active | inactive |
| CO[C@@H]1CN(C)C(=O)c2ccc(NS(=O)(=O)c3cn(C)cn3)cc2OC[C@@H](C)N(Cc2cccc(F)c2)C[C@H]1C | inactive | inactive | inactive |
| CCC(=O)N1C[C@]2(C1)CN([C@H](CO)c1c2c2ccc(cc2n1C)OC)S(=O)(=O)C | inactive | inactive | inactive |
| Cc1noc(C)c1S(=O)(=O)Nc1cccc2c1O[C@H](CN(C)Cc1ccc(C(=O)O)cc1)[C@@H](C)CN([C@H](C)CO)C2=O | inactive | inactive | inactive |
| C[C@@H]1CCCCO[C@@H](CN(C)CC2CC2)[C@@H](C)CN([C@H](C)CO)C(=O)c2cc(NC(=O)C3CCCCC3)ccc2O1 | inactive | inactive | inactive |
| Cc1noc(C)c1NC(=O)Nc1ccc2c(c1)C(=O)N([C@H](C)CO)C[C@@H](C)[C@H](CN(C)C(=O)c1ccccc1)OCCCC[C@H](C)O2 | inactive | inactive | inactive |
| CC(C)NC(=O)Nc1ccc2c(c1)C(=O)N([C@@H](C)CO)C[C@H](C)[C@@H](CN(C)S(=O)(=O)c1cn(C)cn1)O2 | inactive | inactive | inactive |
| OC[C@H]1O[C@@H](Oc2cccc(O)c2CCCc2ccc(O)cc2)[C@@H](O)[C@@H](O)[C@@H]1O | inactive | inactive | inactive |
| N#Cc1cc(F)c(N)c2[nH]cc(S(=O)(=O)c3ccc(NC(=O)c4cc(S(N)(=O)=O)cs4)cn3)c12 | inactive | inactive | inactive |
| COC(=O)[C@H](Cc1ccccc1)N1CC2=CCCC=C[C@H]2[C@@H]1[C@@H](O)CCn1cc(-c2ccc(C(=O)NO)s2)nn1 | inactive | inactive | inactive |
| CN1CCC(CO)CC1 | inactive | inactive | inactive |
| CCS(=O)(=O)N1CC[C@]2(CC1)CN([C@H](CO)c1c2c2ccc(cc2n1C)OC)S(=O)(=O)c1ccccc1 | inactive | inactive | inactive |
| Cc1noc(C)c1NC(=O)N(C)C[C@@H]1Oc2c(NS(C)(=O)=O)cccc2C(=O)N([C@@H](C)CO)C[C@H]1C | inactive | inactive | inactive |
| Cc1ccccc1NC(=O)CC(C)C | inactive | inactive | inactive |
